# Measurements as given in PubChem BioAssay (NCI).
# The source holds several records for some structures; these can differ, active in one and inactive in another.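 Growth was measured after 48 h exposure to one concentration of compound in 96-well plates. Values under 10 count as active.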 Not every entry of the source has a single result; some have several. The list is limited to them. An entry can have further records. The screen tested this drug many times, at the concentration stated with the values; each value is one run. Signs of the kind (2×) give the number of equal values in this list.
# Columns and labels:
# Assay in all cases: NCI-60 one-dose screen, 48 h (100 = growth as untreated, 0 = no growth, -100 = all killed)
# [1] = system: SNB-75 CNS; settings: 2.5 mM; runs of 2000
# [2] = system: SNB-19 CNS; settings: 2.5 mM
# [3] = system: U251 CNS; settings: 2.5 mM
smiles,measurement,setting,value
O=c1[nH]cc(F)c(=O)[nH]1,growth,[1],"active: -1.28, -39.2, 4, -27.1%"
same,growth,[2]; runs of 1991,"inactive: 26.4, 35.2, 40.9, 34.1, 32.1, 41.4, 38.1, 41.8, 29.3, 28.7, 32, 51.3, 28.5, 38.7, 22.2, 39.3, 27.5, 36.9, 29.5, 42.5%"
same,growth,[2]; runs of 1992,"inactive: 36 (2×), 30.6 (2×), 48.5, 55.2, 24, 43.1, 46.1 (2×), 30.2 (2×), 34.7, 35.2, 44.6, 47.9, 57.4, 53.9, 31.5, 21.8, 38 (3×), 43.7, 35.1, 53.7, 27.1 (2×), 42.3, 52, 55.5, 45.8, 51.7, 54.5, 41.8, 33.1 (2×), 44.9, 41.2, 40.6, 33.6 (2×), 33.4, 37.7, 33.7, 40.9, 40.2, 36.8, 42.8, 23.4, 35.9, 27.7, 32.8 (3×), 43, 34.3 (2×), 29.3 (2×), 34.5, 38.5, 56.2, 23.3 (2×), 23.7, 29.1 (3×), 26.5, 36.5, 51.5, 42.4, 19.6, 48.9, 47, 48.1, 36.9, 62, 48.7, 26.6, 27.8, 21.3, 45, 40.8, 38.3, 38.1, 34, 44.7 (2×), 29.7, 31.1, 29.8, 37.5, 26.8, 38.4, 35.7, 30.1, 30.5 (2×), 27.6, 47.8, 36.1, 32.7, 46.2, 20.9, 41, 42.1, 32.5, 36.2, 15.4, 42.9, 11.8, 31.7% and active: -2.76%, -0.274%, -1.47%"
same,growth,[2]; runs of 1993,"inactive: 43.9, 35.3 (2×), 10.6, 31.7 (3×), 40.4 (2×), 33.1 (2×), 39.7, 22.5, 27.4 (3×), 34.1 (2×), 26.9, 43.4, 44.1, 30, 40.5 (2×), 35, 41.2, 48.5, 37.4, 32.9, 42.8, 33, 35.6, 36.4, 39.6, 35.7, 29.1, 31.6, 37.9, 45.7, 45.2, 105, 43 (2×), 38.4, 89.5, 38.1, 34.6, 45.4, 35.8, 47.3, 23.7%"
same,growth,[2]; runs of 1994,"inactive: 45.9, 49.1, 45.3, 35.2, 28.4, 34.3, 20.1, 35.5, 59.4, 52.9, 39.8 (2×), 40.9, 52.6, 29.2, 58.1, 38.4, 43.1, 27.9, 36.7, 24.4, 43.2, 33.6, 17.3, 45.8, 45.2, 30.7, 13.6, 22.8, 58.7, 13, 27.4, 15.9%"
same,growth,[2]; runs of 1995,"inactive: 31.8, 27.2, 23.3, 22.2, 45.6, 29.8, 33, 45.2, 30.9, 35.7, 27.3, 26.8, 33.5, 30, 33.6, 36.1, 32.6, 24.3, 30.3, 33.2, 37, 12.4, 45.1, 35.2, 26.6, 31.2, 42.1, 35.5, 29.7, 44.3, 52.7, 32.1, 36, 30.7, 21.2% and active: -7.3, -14.4, 8.3, 6.08%"
same,growth,[2]; runs of 1996,"inactive: 30 (2×), 40, 28.2, 33.4, 33.1, 24.8, 31.3, 30.3, 38.9, 25.8, 46.6, 40.8, 36, 34.4, 24.2, 23.8, 33.9, 26.5, 51.6, 14.5, 40.7, 42, 39.6, 31.4, 38.8 (2×), 26.6, 37.9, 39.8, 46.7, 48.8, 46.3, 22.6, 41.3, 32.4, 29.7, 31.9, 33.8, 20.8, 44.2, 45.8, 47.2, 37.6 (2×), 40.3, 42.1, 34.2, 17.4, 54.7, 32.8, 24, 32.7, 14.8, 48.6, 27.4% and active: -9.52%, 5.44%"
same,growth,[2]; runs of 1997,"inactive: 23.3, 28.6, 42.5, 92.3, 22.5, 26, 30.7, 38.6, 50.7 (3×), 34.9, 26.6, 47.1, 10.2, 43.8, 41.4, 39.2, 20.4, 46.9, 31.9, 41.3, 22.4, 39.7, 32.4, 32, 10.1, 47.5, 35.1, 40.4, 41.9, 23.8, 31.5, 30.9, 16.9, 35.3, 37.8, 27.1, 16.2% and active: 4.21, -19.3, 5.81, -22.9, 9.22%"
same,growth,[2]; runs of 1998,"inactive: 37.2, 30.3, 55.7, 15.6, 32.6, 33.6, 37.1, 31.9, 15.1, 23, 10.4, 32.5, 23.9, 24.1, 26.2, 52, 35, 47.1, 57.2, 20.2, 29.9, 27.3, 32.7, 41% and active: 7.28%, 1.43%"
same,growth,[2]; runs of 1999,"inactive: 32.8, 39.4, 34.7, 42.6, 34.9% and active: -45.4, -81.2, 4.53, 1.37, -20.2, 3.3, 4.52, 0.555, -34, 0.482, -100, 1.21%"
same,growth,[2]; runs of 2000,"active: 0.633, 2, 1.7, 0.626%"
same,growth,[3]; runs of 1991,"active: 5.36, 3.51, 9.03, 2.15% and inactive: 29.6, 31.1, 21.6, 27.1, 10.1, 15.4, 12.6, 32.6, 19.4, 13.8, 33.3, 21.5, 33, 22.9%"
same,growth,[3]; runs of 1992,"inactive: 23.4, 26.9, 24.4, 31.3, 19, 30.6, 24.7, 21.2, 27.9, 25.9, 41.4, 16.8, 20.4 (2×), 16.7, 31.6, 63.4, 11.2, 18.5 (3×), 15.5, 13.4, 34.8, 25.7 (3×), 16 (2×), 18.9, 22.8, 12.9, 35.5, 21.4, 14.2, 20, 16.5, 11.3, 26.5, 29.7, 19.4 (2×), 20.5, 16.9, 13, 10.6, 35, 29.3, 24.9, 24.5 (2×), 23.3 (2×), 37.9, 26.6 (2×), 29.9, 30.1, 19.8, 25.3, 22.4, 12.6, 23.5, 10.5, 17.5, 27.1 (2×), 11.7 (2×), 23.7 (2×), 25.5, 28.1, 22.7, 29, 13.6, 14.6, 21.7, 23.6, 20.6, 23, 16.1, 15.3, 30.4, 38.4, 18.3, 23.1, 26.8% and active: 4.13, 7.16, 9.09, -7.75, 5.52, -43.6, 9.83, -3.09, 9.84, 8.69, -5.07, 6.52, -12.7, -1.43, 2.35, 6.8, 1.05, -12.8, 3.8, 9.71, 1.57, -10, 8.98, 5.68, -4.67, 7.74, -4.11, 9.14, 6.31%"
same,growth,[3]; runs of 1993,"inactive: 11.5, 25.8, 25.6, 29.4, 26.9 (2×), 20.4, 86.3, 26.2, 34.4, 23.4, 18.3, 26.6, 32, 17.4, 19.6, 24.4, 16.1, 22, 23, 27.9, 33.6, 28, 11.7, 26.3 (2×), 13.4, 14.2, 16.8, 24.1 (3×), 32.7, 21.6, 98.3, 52.9, 25.7, 71.2, 33.2, 19.5, 23.5, 36, 23.3, 30.2, 31.8, 31.7% and active: 5.72%, 6.11%"
same,growth,[3]; runs of 1994,"inactive: 31.7, 13.7, 23.7, 22.2, 15.5, 26.3, 16.5, 24.1, 20.9, 20.8 (2×), 30.3, 24.5, 13.6, 23.6, 28.4, 24.8, 32.8, 14, 25.1, 24.7, 21.9, 24.6, 27.8, 34.1, 28.9, 28.1, 20.4, 28.8% and active: 3.11%, 5.68%"
